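How tested: cells in 96-well plates exposed to compound for 48 hours at five concentrations. Abbreviation: GI50, concentration required for 50% inhibition of growth. TGI: concentration producing complete growth inhibition.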
Tested on: NCI-H322M lung
Test: DTP human tumour cell line panel, 48 h

SMILES | GI50 | TGI
COc1ccc(-c2nc3cc(C)ccc3n2CC(=O)N=Nc2c(O)[nH]c3ccc(Br)cc23)cc1 | 2.5 µM | 12 µM
COc1cc(/C=C/C(=O)c2ccc(S(=O)(=O)NCCNc3nc(Nc4ccc(F)cc4)nc(N(C)C)n3)cc2)cc(OC)c1OC | 10.1 µM | 43.9 µM
O=C1NC(=NC23CC4CC(CC(C4)C2)C3)N/C1=C\c1ccc2ncccc2c1 | 2.94 µM | > 100 µM

Reference: PubChem BioAssay (NCI)
